From PubChem BioAssay AID1745853 (National Center for Advancing Translational Sciences (NCATS), 2022)
Some of the results follow. The main result of the screen is listed elsewhere. These columns were measured beside it and carry no call.

Assays:
Test in all cases: Primary Screen for Target Class Profiling of Small Molecule Inhibitors of Methyltransferases
[1] = target: Glycine N-methyltransferase (Homo sapiens) (UniProt Q14749); settings: purified enzyme, MTase-Glo SAH luminescence; measured here: GNMT inhibition; at 40 µM; stronger effect = lower value
Outline: (§1)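 Each enzyme was assayed with SAM and its substrate. SAH formation detected by MTase-Glo luminescence; single-point 40 uM screen[…].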

[2] = target: Guanidinoacetate N-methyltransferase (Homo sapiens) (UniProt Q14353); settings: purified enzyme, MTase-Glo SAH luminescence; measured here: GAMT inhibition; at 40 µM; stronger effect = lower value
Outline: as §1

[3] = target: Histamine N-methyltransferase (Homo sapiens) (UniProt P50135); settings: purified enzyme, MTase-Glo SAH luminescence; measured here: HNMT inhibition; at 40 µM; stronger effect = lower value
Outline: as §1

[4] = target: Nicotinamide N-methyltransferase (Homo sapiens) (UniProt P40261); settings: purified enzyme, MTase-Glo SAH luminescence; measured here: NNMT inhibition; at 40 µM; stronger effect = lower value
Outline: as §1

[5] = target: Phenylethanolamine N-methyltransferase (Homo sapiens) (UniProt P11086); settings: purified enzyme, MTase-Glo SAH luminescence; measured here: PNMT inhibition; at 40 µM; stronger effect = lower value
Outline: as §1
% is set by controls: 0 for no effect and ±100 for the full control effect.

Structure (SMILES)	activity change, negative = inhibition [1] [%]	activity change, negative = inhibition [2] [%]	activity change, negative = inhibition [3] [%]	activity change, negative = inhibition [4] [%]	activity change, negative = inhibition [5] [%]
C=CC(C)(CC/C=C(\C)C(=O)OC[C@H]1O[C@@H](OC(C)(C=C)CC/C=C(\C)C(=O)O[C@H]2[C@H](O)[C@@H](O)[C@H](OC(C)(C=C)CC/C=C(\C)C(=O)O)O[C@@H]2CO)[C@H](O)[C@@H](O)[C@@H]1O)O[C@@H]1O[C@H](CO)[C@@H](O)[C@H](O)[C@H]1O (stereo not given in full)	6.55	6.15	10	-5.9	7.01
COC1=CC(=O)CC(C)C12Oc1cc(OC)cc(O)c1C2=O (stereo not given)	0	-0.076	2.89	-11.7	3.07
O=C(c1ccccc1)N1CCCC2(CC(c3cccc(C(F)(F)F)c3)=NO2)C1 (stereo not given)	-3.85	1.69	0.96	-3.25	-4.03
O=C(c1ccc(C2CCCNC2)cc1)N1CCCN(c2ccc(F)cc2)CC1 (stereo not given)	-1.97	-0.586	-4.63	-5.98	-2.55
COc1cccc(CN(C(=O)CC(C)(C)C)C2CC(C(=O)N3CCNCC3)N(Cc3ccc4c(c3)OCO4)C2)c1 (stereo not given)	-1.13	-0.021	9.85	-24.4	2.59
O=C(Cn1nc2nc(Nc3ccc(F)cc3)ccn2c1=O)Nc1ccc(F)cc1F	-4.89	0	0.013	-13.9	-10.8
O=C(Cn1nc2nc(Nc3ccc(F)cc3)ccn2c1=O)Nc1cccc(F)c1	-7.51	-5.79	0.768	-12.5	-6.82
Cc1ccc(N(CC(=O)N[C@H]2C[C@@H]3OCC[C@H]23)S(C)(=O)=O)cc1	-0.465	0.13	1.88	2.8	-0.204
CC(C)Oc1ccc(CNC(=O)Cn2ccc3cc(S(=O)(=O)N4CCCCC4)ccc32)cc1	1.43	0	6.13	2.9	1.38
CN(CCc1nc2ccc(Cl)cc2[nH]1)c1cc(C2CC(O)C2)nc(N)n1 (stereo not given)	-5.56	-7.23	-54.4	-15.7	-1.57
O=C1NC(=O)C(c2ccccc2[N+](=O)[O-])=C1Nc1ccc(O)c(Cl)c1	-49.2	-3.63	-4.01	-17.2	-31.1
Cc1cc2[nH]c(=O)[nH]c2cc1S(=O)(=O)NCCc1ccc(Cl)cc1	12.4	0	12.2	-0.972	6.07
Cc1noc(-c2cccn3c(CNC(=O)Cc4cccc(F)c4)nnc23)n1	-1.94	0.874	-0.448	2.89	-1.55
CN(C)C(=O)COC(=O)c1cc(-c2ccc(C3CCNCC3)cc2)c2ccc(-c3ccc(C(F)(F)F)cc3)cc2c1	-6.8	8.7	1	-27.5	2.85
COc1ccccc1CN1C(=O)c2cc3ccccc3n2CC1(C)C(=O)NCCC(C)C (stereo not given)	3.26	0.956	3.6	-0.207	-2.02
